Some of the results follow.

For this assay, the system named is S. aureus RN4220. In words: growth inhibition call (relative growth <= 0.2). The conditions noted are these: 50 µM.
In the case of `C[C@H](CO)N1C[C@H](C)[C@H](CN(C)C(=O)c2ccncc2)OCCCC[C@H](C)Oc2ccc(NC(=O)C3CCCCC3)cc2C1=O`, the growth inhibition call was “inactive”.

With `Cc1noc(C)c1S(=O)(=O)N(C)C[C@H]1Oc2ccc(NS(=O)(=O)c3ccccc3)cc2C(=O)N([C@H](C)CO)C[C@H]1C`, the growth inhibition call was “inactive”.

Consider `O=C(C[C@@H]1C[C@@H]2c3cc(NS(=O)(=O)c4ccc(F)cc4)ccc3O[C@@H]2[C@@H](CO)O1)NC1CCCC1`, for which the growth inhibition call is “inactive”.

For `COc1ccc(S(=O)(=O)Nc2ccc3c(c2)C(=O)N([C@H](C)CO)C[C@@H](C)[C@H](CN(C)S(C)(=O)=O)OCCCC[C@@H](C)O3)cc1`, the growth inhibition call is “inactive”.

For the molecule `C[C@H](CO)N1C[C@H](C)[C@@H](CN(C)S(=O)(=O)c2cn(C)cn2)Oc2c(NC(=O)CCCN(C)C)cccc2C1=O`, the growth inhibition call is “inactive”.

As for `CC(C)C#Cc1cnc2c(c1)C(=O)N([C@H](C)CO)C[C@@H](C)[C@@H](CN(C)C(=O)c1ccc3c(c1)OCO3)O2`, the growth inhibition call is “inactive”.

On to `C[C@@H]1CN([C@H](C)CO)C(=O)Cc2cc(NC(=O)Cc3cn(C)c4ccccc34)ccc2O[C@@H]1CN(C)Cc1ccc(C(F)(F)F)cc1`, for which the growth inhibition call was “inactive”.

Take `COc1cc(N2CCC3(CC2)CNC(=O)CO3)ncn1`: the growth inhibition call was “inactive”.

Take `COc1ccc(NC(=O)N(C)C[C@H]2OCCCC[C@H](C)Oc3ccc(NC(=O)Nc4cccc5ccccc45)cc3C(=O)N([C@H](C)CO)C[C@H]2C)cc1`: the growth inhibition call is “inactive”.

On to `C[C@H]1CN([C@@H](C)CO)C(=O)c2cc(NC(=O)Nc3cccc4ccccc34)ccc2O[C@H]1CN(C)C(=O)Nc1ccc(C(F)(F)F)cc1`, for which the growth inhibition call was “inactive”.

The values are drawn from the antibiotic and cytotoxicity screens of Wong et al. (2023).
